In all, about 46,000 compounds went through this assay and about 60 (0.1%) were called active. Roughly 3% stayed inconclusive and do not appear here. Calls follow the shape of the dose curve; as a rule, active = well fitted inhibition curve with a large enough effect; inconclusive = small, poorly fitted or top-dose-only effect; inactive = no such curve, though single readings can be large or run the other way. This is one part of the list.
Experiment: Primary qHTS assay for Inhibitors of ovarian cancer metastasis using an organotypic tumor microenvironment (TME) model. Also: nearly all actives have a fitted effect of over 65% in size.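 As to activity change, negative = inhibition: plate controls were DMSO wells for no effect and tomatine positive control wells for full effect.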
Details: SKOV3ip1-GFP adhesion/invasion on 3D omental model, fluorescence; series mostly up to 45.8 µM; activity change, negative = inhibition: at the top concentration
Summary of the method: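 qHTS, 4-pt dose (0.36-46 umol/L); SKOV3ip1-GFP, 1,200 cells/well, no FBS; primary omental fibroblast/mesothelial co-culture 48 h pre-grown; 2 h RT + 16 h 37 C; PBS wash, 4% PFA; GFP count 488/509 nm.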

Row | SMILES | activity change, negative = inhibition | outcome
1 | O=C(c1ccc2c(c1)N(Cc1c(F)cccc1Cl)C(=O)c1ccccc1S2)N1CCC2(CC1)OCCO2 | inactive: -8.48% | –
2 | O=C(Nc1ccc(OC(F)(F)F)cc1)c1cccn(Cc2ccccc2Cl)c1=O | inactive: -0.597% | –
3 | CCn1c(CN2CCN(C)CC2)nc2ccccc21 | inactive: 2.99% | –
4 | C=C[C@@H]1CN2CCC1C[C@@H]2[C@@H](O)c1ccnc2ccccc12 (some centres not stated) | inactive: -15.5% | –
5 | Cc1cccc(CN2C(=O)CN=C(c3ccccc3Cl)c3cc(Cl)ccc32)c1 | – | inactive
6 | COC[C@H]1OC(=O)c2coc3c2[C@@]1(C)C1=C(C3=O)C2CCC(=O)[C@@]2(C)C[C@H]1OC(C)=O (some centres not stated) | inactive: 8.8% | –
7 | Cc1ccc(-n2c(/C=C/c3cccc4ccccc34)nc3ccccc3c2=O)cc1 | inactive: 10.9% | –
8 | Cc1cccc(-n2c(CC3C(=O)Nc4ccc(C)cc43)nc3ccccc3c2=O)c1 (configuration not stated) | inactive: -0.271% | –
9 | NCC1(CC(=O)O)CCCCC1 | inactive: 4.17% | –
10 | COc1cccc(-n2c(/C=C/c3cccc(C)c3)nc3ccccc3c2=O)c1 | inactive: -0.693% | –
11 | Cc1cccc(Cn2cccc(C(=O)Nc3nc4ccccc4s3)c2=O)c1 | inactive: -5.53% | –
12 | CCOC(=O)c1ccc(NC(=O)CSc2nc3c(cc2C#N)N2CCC3CC2)cc1 | – | inactive
13 | CC(O)(CS(=O)(=O)c1ccc(F)cc1)C(=O)Nc1ccc(C#N)c(C(F)(F)F)c1 (configuration not stated) | inactive: -28.7% | –
14 | CCOC(=O)c1cncn1[C@H](C)c1ccccc1 | inactive: 4.07% | –
15 | N#Cc1cc2c(nc1SCC(=O)Nc1ccc(Cl)c(C(F)(F)F)c1)C1CCN2CC1 | – | inactive
16 | COc1ccc(NC(=O)c2cccn(Cc3ccc(Cl)cc3)c2=O)c(OC)c1 | inactive: -7.41% | –
17 | O=C(COc1ccccc1[N+](=O)[O-])N1CCN(CCc2ccccn2)CC1 | inactive: -2.82% | –
18 | Cc1ccccc1-n1c(/C=C/c2ccccc2F)nc2ccccc2c1=O | inactive: 14.9% | –
19 | O=C(Nc1ccccc1C(F)(F)F)c1cccn(Cc2ccccc2)c1=O | inactive: -5.47% | –
20 | COC1(CS(=O)c2ccccc2)CCN(CCc2c[nH]c3ccc(F)cc23)CC1 (configuration not stated) | inactive: 1.79% | –
21 | Nc1c(C(=O)Nc2ccc(Cl)c(C(F)(F)F)c2)sc2nc3c(cc12)N1CCC3CC1 | – | inactive
22 | COc1cccc(-n2c(/C=C/c3ccccc3O)nc3ccccc3c2=O)c1 | inactive: -16.1% | –
23 | COc1ccc(-n2c(/C=C\c3ccccc3F)nc3ccccc3c2=O)cc1OC | inactive: -1.95% | –
24 | Cc1ccccc1-n1c(Cn2ncc3c(N)ncnc32)nc2cccc(C)c2c1=O | inactive: -9.47% | –

Row | SMILES | activity change, negative = inhibition | outcome
25 | Cc1ccc(CN2C(=O)c3ccccc3Sc3ccc(C(=O)N4CCC5(CC4)OCCO5)cc32)cc1 | inactive: 8.69% | –
26 | Cc1ccccc1-n1nc(C)c2c1NC(=O)CSC2c1ccc(N(C)C)cc1 (configuration not stated) | inactive: 6.21% | –
27 | CCCCCc1nc2ccccc2c(=O)n1-c1ccc(C)cc1 | – | inactive
28 | Cc1ccc(NC(=O)CN2C(=O)CN=C(c3ccccc3)c3ccccc32)cc1 | inactive: 33.7% | –
29 | CCCC(C)(COC(N)=O)COC(=O)NC(C)C (configuration not stated) | inactive: -8.45% | –
30 | COc1cc(OC)c(OC)cc1C=O | inactive: -1.69% | –
31 | CC(O)=C(C#N)C(=O)Nc1cc(Br)ccc1Br | inactive: -12.5% | –
32 | CC(=Cc1csc(C)n1)[C@@H]1C[C@H]2O[C@]2(C)CCC[C@H](C)[C@@H](O)[C@@H](C)C(=O)C(C)(C)[C@@H](O)CC(=O)O1 | inactive: -8.74% | –
33 | CC(C)c1nn2c(=O)cc(COC(=O)Cc3ccccc3)nc2s1 | – | inactive
34 | N=c1c2c(-c3ccccc3)c(-c3ccccc3)n(Cc3ccccc3)c2ncn1C1CCC(O)CC1 (configuration not stated) | inactive: -14.4% | –
35 | O=C(Nc1cc(C(F)(F)F)cc(C(F)(F)F)c1)c1cccn(Cc2ccccc2Cl)c1=O | – | inactive
36 | C[C@]12CCC(=O)C(O)=C1CC[C@@H]1[C@H]3CCC(=O)[C@@]3(C)CC[C@@H]12 | inactive: 0.338% | –
37 | CCCC[N+]1(C)[C@H]2CC(OC(=O)[C@H](CO)c3ccccc3)C[C@H]1[C@H]1O[C@H]12 (some centres not stated) | inactive: -19.6% | –
38 | CC(C)(C)c1ccc(C(=O)Nc2ccc(Cl)cc2C(=O)c2ccccc2)cc1 | inactive: 15.7% | –
39 | CCCCc1nn2c(=O)cc(COC(=O)Cc3ccccc3)nc2s1 | inactive: 6.56% | –
40 | Cc1ccccc1Cn1cccc(C(=O)Nc2nc3ccccc3s2)c1=O | – | inactive
41 | C[C@]12CC[C@H](O)CC1=CC[C@H]1[C@H]3CCC(=O)[C@@]3(C)CC[C@@H]12 | inactive: -18.3% | –
42 | C=Cc1ccc(Cn2c(C)c(CNCCc3cc(OC)ccc3OC)c(C(=O)O)c2C)cc1 | inactive: 3.88% | –
43 | C=C[C@@H]1CN2CCC1C[C@H]2[C@H](O)c1ccnc2ccccc12 (some centres not stated) | inactive: 7.84% | –
44 | Cc1sc2c(c1C)C(c1ccc(Cl)cc1)=N[C@@H](CC(=O)OC(C)(C)C)c1nnc(C)n1-2 | inactive: -10.5% | –
45 | Cc1ccc(-n2c(=O)[nH]c3ccc(Br)cc3c2=O)cc1 | inactive: -23.5% | –
46 | CSCC[C@@H](NC(=O)[C@@H](Cc1ccccc1)NC(=O)CNC(=O)CNC(=O)[C@@H](N)Cc1ccc(O)cc1)C(=O)O | inactive: -5.59% | –
47 | O=C(Nc1ccc(F)c([N+](=O)[O-])c1)c1cccn(Cc2ccccc2)c1=O | inactive: -5.53% | –

From PubChem BioAssay AID1963576 (National Center for Advancing Translational Sciences (NCATS), 2024)
